Data as given in PubChem BioAssay (Tox21).
“And” between values parts separate entries of the source, which are not always exact repeats. Equal values may be shown once. The shares of active, inactive and inconclusive entries below differ from those in the screen. Where the call is inconclusive, the potency comes from a doubtful curve fit. The source holds several records for some structures; these can differ, active in one and inactive in another. The source made the active and inactive calls. The call rests on the fitted dose curve; in most records, active means well fitted cell-killing curve with a large enough effect in the repeat runs; inconclusive means weak or mixed curves, or effect the other way; inactive means flat fitted curve, though single readings scatter.
Potency means the concentration at half of the fitted maximal effect; tags describe the fitted curve by direction and shape.

Assay: cAMP Responsive Elements (CRE) small molecule antagonists, cell-based qHTS assay: qHTS cell viability counter screen (AID 2060913); further: nearly all actives have a fitted effect of over 40% in size
Settings: CRE-bla HEK293T viability, CellTiter-Glo luminescence, 5 h; series mostly up to 92.4 µM
Summary of the method: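 Cytotoxicity read in the same wells as the CRE-bla HEK293T antagonist assay: after 3 h compound with 0.25 uM NKH477 final and 2 h beta-lactamase substrate, CellTiter-Glo luminescence measured.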
For Cc1ccc(-c2c(Cl)nc(C#N)n2S(=O)(=O)N(C)C)cc1, the Potency was inconclusive: 19.3 µM [cytotoxic, partial curve, poor fit].
With O=S(=O)(Oc1ccc(Cl)cc1)c1ccc(Cl)cc1 the Potency was inconclusive: 61.9 µM [cytotoxic, single point].
In the case of Nc1ccccc1C(=O)OC/C=C/c1ccccc1, the Potency is reported as inconclusive: 54.6 µM [cytotoxic, partial curve, poor fit].
With N#Cc1cc(Br)c(O)c(Br)c1 the Potency was inconclusive: 21.7 µM [cytotoxic, full curve, poor fit] and inconclusive: 46.8 µM [cytotoxic, partial curve, poor fit].
With S=C1NCCN1 the Potency was “inactive”.
In the case of CC1COC(Cn2cncn2)(c2ccc(Oc3ccc(Cl)cc3)cc2Cl)O1 (stereo not given), the Potency is reported as inconclusive: 61.1 µM [cytotoxic, partial curve, poor fit].
With CC(=O)[O][Sn]([c]1ccccc1)([c]1ccccc1)[c]1ccccc1 the Potency was active: 6.11 µM.
With CCCCOC(=O)[C@@H](C)Oc1ccc(Oc2ccc(C#N)cc2F)cc1 the Potency was “inactive”.
With O=P(O)(O)CCCl the Potency was “inactive”.
With O=C1C2CC=CCC2C(=O)N1SC(Cl)(Cl)Cl (stereo not given) the Potency was inconclusive: 26.9 µM [cytotoxic, partial curve, poor fit].
For COc1cc(C=O)cc2c1[C@H](COC(N)=O)[C@]1(OC(C)=O)ON2C[C@H]2[C@@H]1N2C(C)=O, the Potency was “inactive”.
For N#C/C=C/C#N, the Potency was inconclusive: 50.8 µM [cytotoxic, partial curve, poor fit].
With CO/N=C(\C(=O)OC)c1ccccc1CO/N=C(\C)c1cccc(C(F)(F)F)c1 the Potency was inconclusive: 34.4 µM [cytotoxic, partial curve, poor fit].
In the case of CCCC(Cn1cncn1)c1ccc(Cl)cc1Cl (stereo not given), the Potency is reported as inconclusive: 61.1 µM [cytotoxic, partial curve, poor fit].
For COCC(=O)N(c1c(C)cccc1C)N1CCOC1=O, the Potency was “inactive”.
For O=S1OC[C@@H]2[C@H](CO1)[C@]1(Cl)C(Cl)=C(Cl)[C@@]2(Cl)C1(Cl)Cl (stereo not given in full), the Potency was inconclusive: 38.6 µM [cytotoxic, partial curve, poor fit].
In the case of Oc1cc(Cl)c(Cl)c(Cl)c1Cl, the Potency is reported as inconclusive: 18.9 µM [cytotoxic, full curve].
For CC(=O)C(Cl)(Cl)Cl, the Potency was active: 26.4 µM.
In the case of CCOC(=O)c1ccccc1N, the Potency is reported as inconclusive: 1.43 µM [cytotoxic, single point].
For Nc1ccccc1C(=O)Oc1ccc2ccccc2c1, the Potency was “inactive”.
For C=CCC1=C(C)[C@@H](OC(=O)[C@@H]2[C@@H](C=C(C)C)C2(C)C)CC1=O, the Potency was inconclusive: 61.1 µM [cytotoxic, partial curve, poor fit].
In the case of O=C(N[C@H](c1ccccc1)[C@@H]1CN2CCC1CC2)c1c(Cl)ccc(C(F)(F)F)c1Cl, the Potency is reported as inconclusive: 110 µM [cytotoxic, partial curve, poor fit].
In the case of CCc1cc(OC)c(C[C@H](C)N)cc1OC, the Potency is reported as inconclusive: 31.9 µM [cytotoxic, single point].
In the case of N#CSCSC#N, the Potency is reported as inconclusive: 70.1 µM [cytotoxic, single point] and inconclusive: 67.9 µM [cytotoxic].
For Cc1ccc(Cl)c(O)c1, the Potency was “inactive”.
For CC(C)(C)C(O)C(Oc1ccc(Cl)cc1)n1cncn1 (stereo not given), the Potency was inconclusive: 2.27 µM [cytotoxic, single point].
With CCN(N=O)C(N)=O the Potency was “inactive”.
With Oc1cc(Cl)c(Cl)c(Cl)c1 the Potency was active: 51.7 µM.
In the case of CC(=O)[O-].[Tl+], the Potency is reported as inconclusive: 69 µM [cytotoxic, single point].
For Nc1ncn[nH]1, the Potency was inconclusive: 5.7 µM [cytotoxic, full curve].
With CC1(C)CCC(Cc2ccc(Cl)cc2)C1(O)Cn1cncn1 (stereo not given) the Potency was inconclusive: 68.6 µM [cytotoxic, single point].
With C1=CCC=C1 the Potency was “inactive”.
In the case of [O-][Br+2]([O-])O, the Potency is reported as inconclusive: 0.265 µM [cytotoxic, single point].
With FC(F)C(F)(F)OCC(Cn1cncn1)c1ccc(Cl)cc1Cl (stereo not given) the Potency was inconclusive: 60.8 µM [cytotoxic, partial curve, poor fit].
In the case of Cc1cc(C)c(C(=O)P(=O)(c2ccccc2)c2ccccc2)c(C)c1, the Potency is reported as inconclusive: 30.6 µM [cytotoxic, partial curve, poor fit].
